# Assay results reported in the supplement of paper PMC8728848.
# This is one part of the list.
# How the values were obtained:
# Assay in all cases: glycan array binding signal (z-score within array); higher = stronger binding
# Settings in all cases: glycan notation: IUPAC condensed, linker removed
# [1] = molecular target: Man(a1-3)[Man(a1-6)]Man(a1-6)[Man(a1-2)Man(a1-3)]Man(b1-4)GlcNAc(b1-4)GlcNAc
# How it was run: (§1)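 Glycan array data came from 3228 arrays in the Consortium for Functional Glycomics database, and only arrays with an available protein sequence were kept. Glycan names were put into IUPAC-condensed notation, and columns mapping to the same glycan were averaged. The binding signal is a within-array Z-score, averaged across arrays of one protein sequence run at different concentrations or buffers and across linkers. A negative Z-score can be read as non-binding.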
# [2] = molecular target: Man(a1-3)[Man(a1-6)]Man(a1-6)[Man(a1-3)]Man
# How it was run: as §1
# [3] = molecular target: Man(a1-3)[Man(a1-6)]Man(a1-6)[Man(a1-3)]Man(b1-4)GlcNAc(b1-4)GlcNAc
# How it was run: as §1
# [4] = molecular target: Man(a1-3)[Man(a1-6)]Man(b1-4)GlcNAc(b1-4)GlcNAc
# How it was run: as §1
# [5] = molecular target: Man(a1-3)[Man(a1-6)]Man(b1-4)GlcNAc(b1-4)[Fuc(a1-6)]GlcNAc
# How it was run: as §1
# [6] = molecular target: Man(a1-6)Man
# How it was run: as §1
# [7] = molecular target: Man(b1-4)GlcNAc
# How it was run: as §1
# [8] = molecular target: MurNAc(b1-4)GlcNAc
# How it was run: as §1
# [9] = molecular target: Neu5Ac(a2-3)Gal
# How it was run: as §1
# [10] = molecular target: Neu5Ac(a2-3)Gal(b1-3)GalNAc
# How it was run: as §1
# [11] = molecular target: Neu5Ac(a2-3)Gal(b1-3)GalNAc(b1-3)Gal(a1-4)Gal(b1-4)Glc
# How it was run: as §1
# [12] = molecular target: Neu5Ac(a2-3)Gal(b1-3)GalNAc(b1-4)Gal(b1-4)Glc
# How it was run: as §1
# [13] = molecular target: Neu5Ac(a2-3)Gal(b1-3)GalNAc(b1-4)[Neu5Ac(a2-3)]Gal(b1-4)Glc
# How it was run: as §1
# [14] = molecular target: Neu5Ac(a2-3)Gal(b1-3)GalNAc(b1-4)[Neu5Ac(a2-8)Neu5Ac(a2-3)]Gal(b1-4)Glc
# How it was run: as §1
# [15] = molecular target: Neu5Ac(a2-3)Gal(b1-3)GalNAc6S
# How it was run: as §1
# [16] = molecular target: Neu5Ac(a2-3)Gal(b1-3)GlcNAc
# How it was run: as §1
# [17] = molecular target: Neu5Ac(a2-3)Gal(b1-3)GlcNAc(b1-2)Man
# How it was run: as §1
# [18] = molecular target: Neu5Ac(a2-3)Gal(b1-3)GlcNAc(b1-2)Man(a1-3)[GlcNAc(b1-4)][Neu5Ac(a2-3)Gal(b1-3)GlcNAc(b1-2)Man(a1-6)]Man(b1-4)GlcNAc(b1-4)GlcNAc
# How it was run: as §1
# [19] = molecular target: Neu5Ac(a2-3)Gal(b1-3)GlcNAc(b1-2)Man(a1-3)[Neu5Ac(a2-3)Gal(b1-3)GlcNAc(b1-2)Man(a1-6)]Man(b1-4)GlcNAc(b1-4)GlcNAc
# How it was run: as §1
# [20] = molecular target: Neu5Ac(a2-3)Gal(b1-3)GlcNAc(b1-2)[Neu5Ac(a2-3)Gal(b1-3)GlcNAc(b1-4)]Man(a1-6)[Neu5Ac(a2-3)Gal(b1-3)GlcNAc(b1-2)Man(a1-3)]Man(b1-4)GlcNAc(b1-4)GlcNAc
# How it was run: as §1
# [21] = molecular target: Neu5Ac(a2-3)Gal(b1-3)GlcNAc(b1-3)Gal(b1-3)GlcNAc
# How it was run: as §1
# [22] = molecular target: Neu5Ac(a2-3)Gal(b1-3)GlcNAc(b1-3)Gal(b1-4)GlcNAc
# How it was run: as §1
# [23] = molecular target: Neu5Ac(a2-3)Gal(b1-3)GlcNAc(b1-3)GalNAc
# How it was run: as §1
# [24] = molecular target: Neu5Ac(a2-3)Gal(b1-3)GlcNAc(b1-4)Gal(b1-4)Glc
# How it was run: as §1
# [25] = molecular target: Neu5Ac(a2-3)Gal(b1-3)GlcNAc(b1-6)GalNAc
# How it was run: as §1
# [26] = molecular target: Neu5Ac(a2-3)Gal(b1-3)GlcNAc6S
# How it was run: as §1
# [27] = molecular target: Neu5Ac(a2-3)Gal(b1-3)[Fuc(a1-4)]GlcNAc
# How it was run: as §1
# [28] = molecular target: Neu5Ac(a2-3)Gal(b1-3)[Fuc(a1-4)]GlcNAc(b1-3)Gal(b1-3)[Fuc(a1-4)]GlcNAc
# How it was run: as §1
# [29] = molecular target: Neu5Ac(a2-3)Gal(b1-3)[Fuc(a1-4)]GlcNAc(b1-3)Gal(b1-4)[Fuc(a1-3)]GlcNAc
# How it was run: as §1
# [30] = molecular target: Neu5Ac(a2-3)Gal(b1-3)[GlcNAc(b1-6)]GalNAc
# How it was run: as §1
# [31] = molecular target: Neu5Ac(a2-3)Gal(b1-3)[Neu5Ac(a2-6)]GalNAc
# How it was run: as §1
# [32] = molecular target: Neu5Ac(a2-3)Gal(b1-3)[Neu5Ac(a2-6)]GlcNAc(b1-3)[Fuc(a1-3)[Gal(b1-4)]GlcNAc(b1-6)]Gal(b1-4)Glc
# How it was run: as §1
# [33] = molecular target: Neu5Ac(a2-3)Gal(b1-3)]Neu5Ac(a2-3)Gal(b1-4)]GlcNAc
# How it was run: as §1
# [34] = molecular target: Neu5Ac(a2-3)Gal(b1-4)Glc
# How it was run: as §1
# [35] = molecular target: Neu5Ac(a2-3)Gal(b1-4)GlcNAc
# How it was run: as §1
# [36] = molecular target: Neu5Ac(a2-3)Gal(b1-4)GlcNAc(b1-2)Man
# How it was run: as §1
# [37] = molecular target: Neu5Ac(a2-3)Gal(b1-4)GlcNAc(b1-2)Man(a1-3)[GlcNAc(b1-4)][Neu5Ac(a2-3)Gal(b1-4)GlcNAc(b1-2)Man(a1-6)]Man(b1-4)GlcNAc(b1-4)GlcNAc
# How it was run: as §1
# [38] = molecular target: Neu5Ac(a2-3)Gal(b1-4)GlcNAc(b1-2)Man(a1-3)[Neu5Ac(a2-3)Gal(b1-4)GlcNAc(b1-2)Man(a1-6)]Man(b1-4)GlcNAc(b1-4)GlcNAc
# How it was run: as §1
binder,measurement,setting,value
"Epa9 (Candida glabrata), CAGL0A01386g (protein) MGSSHHHHHHSSGLVPRGSHMDITPFAHYPRPEGCSSPPNAVSVGLHMDLYNYPYLYVKNPRTGFTNDTDSDADGETDGDSAGGIEGRAGQCWNPEYQDPNFPRYGYKKYGSFGSSDHVNGKISWDHNEFKEGCKPIMARLPTAYNYPAKITFSNFTMVLSGYFKPKSTGLYKFEIHADDFILFNFGSKNAFECCNREESIDNFGPYVAYAMWPNEADQELEVYLFEDSYYPIRLFYNNRDYHSKFMVGFYPPNTEEITYDFDGYLYMLDDTGNECKDSIRYKTVCDD",glycan array binding signal (z-score),[1],-0.344
same,glycan array binding signal (z-score),[2],-0.481
same,glycan array binding signal (z-score),[3],-0.434
same,glycan array binding signal (z-score),[4],-0.45
same,glycan array binding signal (z-score),[5],-0.401
same,glycan array binding signal (z-score),[6],-0.428
same,glycan array binding signal (z-score),[7],-0.441
same,glycan array binding signal (z-score),[8],-0.475
same,glycan array binding signal (z-score),[9],-0.474
same,glycan array binding signal (z-score),[10],-0.476
same,glycan array binding signal (z-score),[11],-0.459
same,glycan array binding signal (z-score),[12],-0.494
same,glycan array binding signal (z-score),[13],-0.457
same,glycan array binding signal (z-score),[14],-0.42
same,glycan array binding signal (z-score),[15],-0.462
same,glycan array binding signal (z-score),[16],-0.455
same,glycan array binding signal (z-score),[17],-0.455
same,glycan array binding signal (z-score),[18],-0.445
same,glycan array binding signal (z-score),[19],-0.432
same,glycan array binding signal (z-score),[20],-0.412
same,glycan array binding signal (z-score),[21],-0.456
same,glycan array binding signal (z-score),[22],-0.482
same,glycan array binding signal (z-score),[23],-0.458
same,glycan array binding signal (z-score),[24],-0.453
same,glycan array binding signal (z-score),[25],-0.431
same,glycan array binding signal (z-score),[26],-0.496
same,glycan array binding signal (z-score),[27],-0.437
same,glycan array binding signal (z-score),[28],-0.453
same,glycan array binding signal (z-score),[29],-0.456
same,glycan array binding signal (z-score),[30],-0.468
same,glycan array binding signal (z-score),[31],-0.437
same,glycan array binding signal (z-score),[32],-0.394
same,glycan array binding signal (z-score),[33],-0.423
same,glycan array binding signal (z-score),[34],-0.47
same,glycan array binding signal (z-score),[35],-0.476
same,glycan array binding signal (z-score),[36],-0.427
same,glycan array binding signal (z-score),[37],-0.474
same,glycan array binding signal (z-score),[38],-0.453
